Test results taken from paper PMC4336329 (PLoS ONE, 2015).
The whole screen tested about 310,000 compounds, of which about 14,000 (4.5%) showed an effect of 50% or more. Effects have a minus sign here. The list shows a part of the results.

These compounds were tested against human ether-à-go-go-related gene (hERG) potassium channel (human, UniProt Q12809) (assay: primary screen, population patch clamp on CHO cells stably expressing hERG).
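Also: peak tail current of the secondary pulse compared with the same well before compound.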

Sequence of human ether-à-go-go-related gene (hERG) potassium channel (Q12809 whole entry, looked up): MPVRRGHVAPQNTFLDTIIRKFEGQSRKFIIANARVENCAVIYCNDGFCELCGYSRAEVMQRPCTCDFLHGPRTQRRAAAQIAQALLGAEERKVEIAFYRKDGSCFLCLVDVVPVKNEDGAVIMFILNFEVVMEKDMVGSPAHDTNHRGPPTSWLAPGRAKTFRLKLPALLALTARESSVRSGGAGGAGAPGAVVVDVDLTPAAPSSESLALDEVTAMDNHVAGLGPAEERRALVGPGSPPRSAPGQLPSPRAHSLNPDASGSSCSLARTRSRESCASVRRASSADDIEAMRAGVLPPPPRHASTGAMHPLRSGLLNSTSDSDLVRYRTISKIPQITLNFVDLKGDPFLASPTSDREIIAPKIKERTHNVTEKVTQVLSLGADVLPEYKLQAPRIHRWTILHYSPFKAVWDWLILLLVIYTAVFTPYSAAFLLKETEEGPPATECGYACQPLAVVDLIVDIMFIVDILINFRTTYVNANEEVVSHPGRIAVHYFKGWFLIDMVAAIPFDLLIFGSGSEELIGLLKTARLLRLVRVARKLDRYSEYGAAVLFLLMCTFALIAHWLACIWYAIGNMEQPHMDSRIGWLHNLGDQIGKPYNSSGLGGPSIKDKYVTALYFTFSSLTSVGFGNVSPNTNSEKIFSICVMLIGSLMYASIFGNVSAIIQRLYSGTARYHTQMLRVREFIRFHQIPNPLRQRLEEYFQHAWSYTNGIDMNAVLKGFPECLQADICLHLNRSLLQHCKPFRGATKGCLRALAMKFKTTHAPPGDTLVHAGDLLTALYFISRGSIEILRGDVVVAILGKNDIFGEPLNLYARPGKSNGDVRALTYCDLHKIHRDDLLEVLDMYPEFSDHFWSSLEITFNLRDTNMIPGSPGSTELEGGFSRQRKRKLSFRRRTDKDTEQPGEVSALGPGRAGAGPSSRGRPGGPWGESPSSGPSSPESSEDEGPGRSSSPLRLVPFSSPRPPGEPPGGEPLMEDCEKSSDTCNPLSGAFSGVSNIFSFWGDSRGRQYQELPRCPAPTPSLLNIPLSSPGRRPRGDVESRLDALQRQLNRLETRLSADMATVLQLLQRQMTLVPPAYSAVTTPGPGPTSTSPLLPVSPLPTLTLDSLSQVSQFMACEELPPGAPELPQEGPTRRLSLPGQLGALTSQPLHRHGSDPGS

| SMILES | hERG current change (%, negative = inhibition) at 10uM [%] |
| --- | --- |
| COc1ccc(-c2nc3nc(N)nn3cc2C)cc1F | 9.62 |
| OCCC#Cc1ccc(CN2CCN(Cc3ccccc3)C(CCO)C2)cc1 (stereo not shown) | -15 |
| C/C(N)=C(/C#N)C(=O)COC(=O)c1ccc(O)cc1 | 5.92 |
| CCOC(=O)c1c(CSc2ccc(C)cc2)n(C)c2cc(Br)c(O)c(CN(C)C)c12.Cl.O | -54.9 |
| O=C(C1=C[C@H](c2coc3ccccc3c2=O)C[C@H](OCc2ccc(CO)cc2)O1)N1CCOCC1 | -49.7 |
| C[C@@H]1O[C@@H](O[C@H]2[C@H](Oc3cc(O)c4c(c3)OC(c3ccc(O)cc3)CC4=O)O[C@H](CO)[C@@H](O)[C@@H]2O)[C@H](O)[C@H](O)[C@H]1O (stereo partly shown) | 9.52 |
| Cc1ccc(N(CC(=O)N2CCc3ccccc32)S(=O)(=O)c2cccs2)cc1 | 3.66 |
| Cc1c(C(=O)N/N=C/c2ccc(N3CCOCC3)cc2)nc2ccccn12 | -1.87 |
| COc1cccc(C(=O)Nc2c(F)cccc2F)c1 | 13.7 |
| CCOC(=O)CNc1ncc([N+](=O)[O-])cc1C#N | 9.14 |
| CC(=O)c1ccc(OCCOc2ccc(C#N)cc2)cc1 | -49.4 |
| Cn1nc(-c2ccccc2)c2nc3ccccc3nc21 | -5.31 |
| Cc1nc(NCCCn2ccnc2)c2ccccc2n1.Cl | 3.46 |
| N#CC(C(N)=O)=C1CCCCC1 | 3 |
| CS(=O)(=O)c1cccc(C(=O)Nc2ccccc2Cc2ccccc2)c1 | -1.45 |
| COCCn1nnnc1C(c1cc2cc(C)ccc2[nH]c1=O)N1CCc2ccccc21 (stereo not shown) | 11.7 |
| c1ccc(Cn2nnc3c(N4CCC5(CC4)OCCO5)ncnc32)cc1 | -22.2 |
| CCC(CC)C(=O)Nc1cc(C)c2c(=O)oc3ccccc3c2n1 | 1.39 |
| Cc1nnc(N2CCN(Cc3ccccc3)CC2)[nH]c1=O | 5.07 |
| CC(=O)C1=C(C)OC2(O)c3ccccc3C(=O)C12O (stereo not shown) | 10 |
| Cc1ccc(-n2cc(CNC(C)Cn3cncn3)c(-c3ccc(F)cc3)n2)cc1 (stereo not shown) | -60.7 |
| O=C(CCc1ccccc1)Nc1cccc(-c2nnc(-c3ccco3)o2)c1 | 2.2 |

| SMILES | hERG current change (%, negative = inhibition) at 10uM [%] |
| --- | --- |
| Cc1cc(Cl)ccc1NC(=O)COC(=O)CCNS(=O)(=O)c1ccccc1 | -27.6 |
| O=C(CNS(=O)(=O)c1ccc(Br)s1)N1CCC2(CC1)OCCO2 | -7.69 |
| Cc1ccccc1OCCNc1cc(N2CC(C)NC(C)C2)ccc1[N+](=O)[O-] (stereo not shown) | -12.3 |
| COCCSc1ccccc1C(=O)Nc1nncs1 | -5.1 |
| CCc1ccc(NC(=O)Cn2cnc3c(=O)n(C)c(=O)n(C)c32)cc1 | 13.2 |
| COc1ccc(S(=O)(=O)N2CCOCC2)cc1NC(=O)COC(=O)C1COc2ccccc2O1 (stereo not shown) | -11.7 |
| CC(=O)NS(=O)(=O)c1ccc(NC(=O)c2ccc(Cl)cc2[N+](=O)[O-])cc1 | 19 |
| Cc1noc(C(=O)Nc2ccc(F)cc2F)c1Cl | 11.3 |
| Cc1cccc(C)c1OCCN1CCOCC1.O=C(O)C(=O)O | -0.56 |
| CCOc1nc2ccccc2nc1NS(=O)(=O)c1ccccc1 | -1.6 |
| CN(C)CCCn1c(=O)n(CCc2ccccc2)c(=O)c2c3c(sc21)CCCCC3 | -70.4 |
| CCOc1ccccc1NC(=O)NC1CCCc2ccccc21 (stereo not shown) | 10.6 |
| C#CCSc1nc(-c2cccs2)ccc1C#N | -13.4 |
| Cc1ccc([N+](=O)[O-])cc1NC(=O)/C=C/C(=O)O | -2.79 |
| COC(=O)c1cc(-c2ccc(OC)c(OC)c2)c2c(=O)[nH]c(=O)n(C)c2n1 | 21.3 |
| CCc1ccccc1N(CC(=O)NCc1ccc(OC)cc1)C(=O)CCC(=O)Nc1ccccn1 | 4.26 |
| CC1CCCC(NC(=S)NC(=O)c2cncc(Br)c2)C1C (stereo not shown) | 21.7 |
| COc1ccccc1-c1nc(C#N)c(N2CC(C)CC(C)C2)o1 (stereo not shown) | 5.24 |
| CN(C)CC#CCn1c2ccccc2c2ccccc21.Cl | -2.15 |
| CCCCN(C(=O)c1cc(S(=O)(=O)N2CCCCCC2)ccc1OC)c1c(N)n(CCC)c(=O)[nH]c1=O | 3.86 |
| O=C(Cn1ccc(C(F)(F)F)n1)Nc1ccc(S(=O)(=O)NCc2ccco2)cc1 | 1.34 |
| Cn1c(=O)c2c(nc(CN3CCN(c4ccccc4)CC3)n2Cc2c(F)cccc2Cl)n(C)c1=O | -22.1 |

| SMILES | hERG current change (%, negative = inhibition) at 10uM [%] |
| --- | --- |
| COC(=O)C1=C(C(=O)OC)C(c2ccccc2O)c2sc(=O)[nH]c2S1 (stereo not shown) | -55.9 |
| O=C(c1cc(-c2ccccc2)nc2ccccc12)N1CCc2ccccc2C1 | -16.1 |
| COc1cc(/C=C2\NC(=S)N(C)C2=O)ccc1OCc1cccc(F)c1 | 10.5 |
| CCCn1nnc(NC(=S)NC(=O)/C=C/c2ccc(Cl)cc2)n1 | 19.5 |
| O=C(COC(=O)c1cc([N+](=O)[O-])ccc1NCc1ccccc1)NC1CCCCC1 | -6 |
| O=C1CN(C(=O)COC(=O)/C=C/c2ccc(OC(F)F)cc2)c2ccccc2N1 | -16.2 |
| Cn1cc(CN2CCC(n3nccc3NC(=O)CCc3ccccc3)CC2)cn1 | 16 |
| O=C(NCCCN1CCOCC1)c1ccc2nc(Cc3ccccc3F)oc2c1 | -6.93 |
| O=C(O)CCCN(Cc1cccc(Br)c1)S(=O)(=O)c1ccc(Br)cc1 | -23.4 |
| Cc1nnc(SCc2cc(=O)oc3ccc4ccccc4c23)n1Cc1ccccc1 | -23.8 |
| COc1cccc(CNCCSc2nnnn2C)c1OC.Cl | -2.18 |
| CCS(=O)(=O)N1CCN(C(=O)c2ccc(-c3ccccc3)cc2)CC1 | -12.8 |
| COC(=O)c1ccc(COc2ccc(C(C)(C)C)cc2)o1 | 21.1 |
| CCc1ccc(-n2c(SCC(=O)N3CCC(C(=O)O)CC3)nnc2-c2ccncc2)cc1 | -0.767 |
| COc1ccc(CCNC(=O)CSc2nnnn2-c2ccc(OC)c(OC)c2)cc1OC | 2.17 |
| CCC1(c2ccc(F)cc2)NC(=O)N(CC(=O)Nc2ccc(C(N)=O)cc2)C1=O (stereo not shown) | 23.5 |
| CCOc1ccc(C(=O)NCCn2cc(SCC(=O)Nc3cc(C)on3)c3ccccc32)cc1 | 3.4 |
| CCOC(=O)/C(=C\C=C1/Sc2cc(OCC)c(OCC)cc2N1CC)C(C)=O | -11.8 |
| CCCCC(CC)C(=O)Nc1ccc(Nc2ccccc2)cc1 (stereo not shown) | -12.8 |
| O=C(CCCc1ccccc1)NCc1ccc(Cl)cc1 | -15.3 |
| CC(C)N(Cc1nc(-c2ccc(Cl)cc2)no1)C(=O)/C=C/c1ccccc1 | 3.41 |
| O=C(CSc1nc2ccccc2c(=O)n1Cc1ccco1)N1CCCC1 | -77.1 |

| SMILES | hERG current change (%, negative = inhibition) at 10uM [%] |
| --- | --- |
| COc1ccc(S(=O)(=O)N2CCN(CC(=O)Nc3sccc3C(N)=O)CC2)cc1OC | -28 |
| O=C(NN=C1CCCC1)c1ccn[nH]1 | 2.96 |
| O=P(COCCOCCOCP(=O)(c1ccccc1)c1ccccc1)(c1ccccc1)c1ccccc1 | -31.6 |
| CC1(C)Cc2nc3sc4c(N5CCCC5)nnnc4c3cc2CO1 | 1.3 |
| COc1ccc(CNC(=S)Nc2ccc(-c3ccccc3)cc2)cc1 | 9.6 |
| COc1cc(/C=C/[N+](=O)[O-])ccc1OC(=O)c1cccnc1 | 12.8 |
| Cc1ccc(NC(=O)Cn2c([N+](=O)[O-])cnc2C)cc1 | 19.1 |
| O=C(C1CC(=O)N(c2ccc3c(c2)OCCO3)C1)N1CCN(c2cccc(C(F)(F)F)c2)CC1 (stereo not shown) | -34.6 |
| CCOc1ccc(CC(=O)NCC(=O)NCc2cc(=O)n(C)c(=O)n2C)cc1 | -14 |
| N#CC1=C(N)Nc2ncnn2C1c1ccc(F)cc1 (stereo not shown) | -16.3 |
| CCN1CCN(Cc2ccc(NC(=O)c3cc(NC(=O)C(=O)c4c[nH]c5ccccc45)cc(OC)c3)cc2C(F)(F)F)CC1 | 8.1 |
| O=C(O)CNC(=O)/C(=C\c1ccco1)NC(=O)c1ccco1 | 18.6 |
| CCCCn1c(N)c(N(CCOC)C(=O)C2CCN(S(=O)(=O)c3ccc(C)c(C)c3)CC2)c(=O)[nH]c1=O | -14.4 |
| COc1ccc(S(=O)(=O)N2CCCCC2)cc1NC(=O)CN(Cc1ccco1)Cc1ccco1 | -23.7 |
| Cc1ccc(NC(=O)COC(=O)C2CCC2)cc1S(=O)(=O)N1CCCCC1 | -9.25 |
| CC(=O)NCCc1c[nH]c2ccc(O)cc12 | 33.8 |
| COc1ccc(CN2CCC(N3CC(C)OC(C)C3)CC2)c(OC)c1OC.O=C(O)C(=O)O (stereo not shown) | -1.67 |
| COc1ccc(-c2noc(=O)n2Cc2ccc(F)cc2Cl)cc1 | -7.78 |
| CCc1ccc(Nc2n[n+](-c3ccccc3)c(-c3ccc(C(=O)O)cc3)s2)cc1.[Cl-] | 13.1 |
